Here are results for 25 sequences from publication PMC5700166.

Assay in all cases: protein-binding microarray (PBM)
Holding throughout (details): PBM: ~300 nM protein, 6 mM HEPES pH 7.8, 80 mM KCl, 0.5 mM EDTA, 0.5 mM EGTA, 6% glycerol, 35 ng/ul poly-dIdC, 1% milk, 1 h, room temperature; Ap Aiptasia and Nv Nematostella (sea anemones) / Co Capsaspora / Aq Amphimedon (sponge) / Dm Drosophila / Hu human; RHD is the Rel homology domain; high values mean tight binding; most listed sequences are background and not binding sites; double strand, one strand shown

One assay deals with T1, GST-Ap-NF-kB RHD (UniProt A0A913YAJ5).
T1 sequence: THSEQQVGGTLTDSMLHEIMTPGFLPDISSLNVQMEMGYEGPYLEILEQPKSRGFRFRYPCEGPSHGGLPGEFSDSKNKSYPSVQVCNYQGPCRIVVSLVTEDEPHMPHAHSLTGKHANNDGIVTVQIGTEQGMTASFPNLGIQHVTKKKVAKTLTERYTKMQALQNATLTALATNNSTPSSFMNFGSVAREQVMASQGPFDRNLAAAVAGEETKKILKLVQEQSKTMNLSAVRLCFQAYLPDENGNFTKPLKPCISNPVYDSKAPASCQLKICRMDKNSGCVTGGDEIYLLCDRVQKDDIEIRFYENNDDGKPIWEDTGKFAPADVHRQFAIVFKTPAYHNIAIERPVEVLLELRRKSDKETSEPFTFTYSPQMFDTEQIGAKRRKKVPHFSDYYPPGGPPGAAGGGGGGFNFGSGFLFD

The target in assay [1] is T2, GST-Nv-NF-kB (Cys allele) (UniProt E5G601).
T2 sequence: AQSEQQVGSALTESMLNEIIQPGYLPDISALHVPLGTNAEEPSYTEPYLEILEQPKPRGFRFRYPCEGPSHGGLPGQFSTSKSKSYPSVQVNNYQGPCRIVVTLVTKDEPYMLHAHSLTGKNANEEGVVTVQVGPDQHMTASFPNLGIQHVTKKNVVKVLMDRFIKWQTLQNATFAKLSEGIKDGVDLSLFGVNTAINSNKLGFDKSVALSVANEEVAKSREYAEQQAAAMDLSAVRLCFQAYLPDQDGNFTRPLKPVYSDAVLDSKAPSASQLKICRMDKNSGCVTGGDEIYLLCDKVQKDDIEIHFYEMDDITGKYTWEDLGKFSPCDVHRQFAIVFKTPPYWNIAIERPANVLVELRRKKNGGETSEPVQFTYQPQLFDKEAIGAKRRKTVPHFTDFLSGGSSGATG

In the next assay the target is T3, GST-Co-NF-kB (UniProt F1ARL5).
T3 sequence: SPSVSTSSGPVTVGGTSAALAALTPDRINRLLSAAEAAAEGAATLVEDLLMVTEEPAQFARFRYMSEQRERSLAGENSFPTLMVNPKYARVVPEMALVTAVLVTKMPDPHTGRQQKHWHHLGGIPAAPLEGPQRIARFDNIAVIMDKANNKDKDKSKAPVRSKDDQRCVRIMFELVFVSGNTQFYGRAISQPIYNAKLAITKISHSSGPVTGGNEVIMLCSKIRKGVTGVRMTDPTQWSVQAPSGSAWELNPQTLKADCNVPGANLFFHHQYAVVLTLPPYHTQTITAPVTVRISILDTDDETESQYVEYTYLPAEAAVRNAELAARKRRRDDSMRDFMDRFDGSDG

Another assay addresses T4, GST-Dm-Relish (UniProt Q94527).
T4 sequence: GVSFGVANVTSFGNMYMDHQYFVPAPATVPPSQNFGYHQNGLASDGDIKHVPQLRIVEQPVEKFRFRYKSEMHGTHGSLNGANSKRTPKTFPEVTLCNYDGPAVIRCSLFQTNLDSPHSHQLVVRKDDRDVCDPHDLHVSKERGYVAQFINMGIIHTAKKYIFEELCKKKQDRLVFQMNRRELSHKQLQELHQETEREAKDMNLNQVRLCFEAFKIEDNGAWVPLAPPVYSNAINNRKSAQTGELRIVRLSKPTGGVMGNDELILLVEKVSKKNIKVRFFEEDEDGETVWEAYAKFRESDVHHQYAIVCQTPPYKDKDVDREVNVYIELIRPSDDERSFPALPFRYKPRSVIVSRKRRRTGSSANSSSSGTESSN

A further assay concerns the target T5, GST-Aq-NF-kB (UniProt A9Y5G7).
T5 sequence: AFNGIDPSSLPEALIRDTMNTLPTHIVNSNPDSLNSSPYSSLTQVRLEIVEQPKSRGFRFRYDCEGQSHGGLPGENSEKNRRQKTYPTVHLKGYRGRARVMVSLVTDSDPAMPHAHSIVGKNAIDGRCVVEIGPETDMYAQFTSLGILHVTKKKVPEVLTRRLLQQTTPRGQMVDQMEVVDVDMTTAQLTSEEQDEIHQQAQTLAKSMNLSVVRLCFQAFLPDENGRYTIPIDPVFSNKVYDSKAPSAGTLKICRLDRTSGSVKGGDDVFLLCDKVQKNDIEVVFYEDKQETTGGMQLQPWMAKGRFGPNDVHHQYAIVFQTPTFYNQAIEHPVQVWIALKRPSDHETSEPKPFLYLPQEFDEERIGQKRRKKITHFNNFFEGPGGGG

The entries are a selection whose mix differs from that of the whole data set. The list includes weakly bound sequences.

Consider “CCGATTAACATCAGGACTCAGTATGATGTTAATCGGGTCTTGATTCGCTTGACGCTGCTG”, for which the binding signal in the assay with GST-Ap-NF-kB RHD is -0.518 z-score; in assay [1], -1.26 z-score; with GST-Co-NF-kB, -0.496 z-score; in the assay with GST-Dm-Relish it was -0.76 z-score; with GST-Aq-NF-kB, -0.405 z-score.
Consider “CCGATTAACATCAAAATTCCAAATGATGTTAATCGGGTCTTGATTCGCTTGACGCTGCTG”, for which the binding signal in the assay with GST-Ap-NF-kB RHD is -0.395 z-score; in assay [1] it was 0.225 z-score; with GST-Co-NF-kB, -0.149 z-score; in the assay with GST-Dm-Relish, 0.764 z-score; with GST-Aq-NF-kB, 0.548 z-score.
With “CCGATTAACATCACACAAGAGAATGATGTTAATCGGGTCTTGATTCGCTTGACGCTGCTG”, the binding signal was 0.353 z-score with GST-Ap-NF-kB RHD; -0.186 z-score in assay [1]; 0.418 z-score with GST-Co-NF-kB; -0.0055 z-score with GST-Dm-Relish; -0.219 z-score with GST-Aq-NF-kB.
With “CCGATTAACATCATAGTCGAACTTGATGTTAATCGGGTCTTGATTCGCTTGACGCTGCTG”, the binding signal was -0.716 z-score with GST-Ap-NF-kB RHD; -0.0298 z-score in assay [1]; -0.674 z-score with GST-Co-NF-kB; -0.964 z-score with GST-Dm-Relish; -0.678 z-score with GST-Aq-NF-kB.
Take “CCGATTAACATCAGTTGTCCATCTGATGTTAATCGGGTCTTGATTCGCTTGACGCTGCTG”: the binding signal with GST-Ap-NF-kB RHD was -0.279 z-score; in assay [1], -0.482 z-score; in the assay with GST-Co-NF-kB, -0.45 z-score; with GST-Dm-Relish it was -0.654 z-score; with GST-Aq-NF-kB it was -0.41 z-score.
The matching figures for “CCGATTAACATCACAATTTGGACTGATGTTAATCGGGTCTTGATTCGCTTGACGCTGCTG”: 0.00807 z-score, -0.496 z-score, 0.313 z-score, 0.178 z-score and 0.00868 z-score.
Regarding “CCGATTAACATCACTCAATTCGTTGATGTTAATCGGGTCTTGATTCGCTTGACGCTGCTG”, the binding signal with GST-Ap-NF-kB RHD was -0.339 z-score; in assay [1] it was -0.842 z-score; in the assay with GST-Co-NF-kB it was -0.0201 z-score; with GST-Dm-Relish it was -0.401 z-score; with GST-Aq-NF-kB, -0.265 z-score.
The matching figures for “CCGATTAACATCAAATGACGGAATGATGTTAATCGGGTCTTGATTCGCTTGACGCTGCTG”: -0.15 z-score, 0.314 z-score, 0.123 z-score, -0.182 z-score and -0.0805 z-score.
With “CCGATTAACATCAACTATCCCGCTGATGTTAATCGGGTCTTGATTCGCTTGACGCTGCTG”, the binding signal in the assay with GST-Ap-NF-kB RHD was 0.26 z-score; in assay [1] it was 0.788 z-score; with GST-Co-NF-kB it was 1.37 z-score; in the assay with GST-Dm-Relish it was -0.253 z-score; with GST-Aq-NF-kB, 1.07 z-score.
Regarding “CCGATTAACATCAGACTGCATCTTGATGTTAATCGGGTCTTGATTCGCTTGACGCTGCTG”, the binding signal with GST-Ap-NF-kB RHD is -0.541 z-score; in assay [1], -0.0279 z-score; with GST-Co-NF-kB, -0.47 z-score; with GST-Dm-Relish it was -0.607 z-score; with GST-Aq-NF-kB, -0.39 z-score.
In the same order, the values of “CCGATTAACATCAGTCCATTCTCTGATGTTAATCGGGTCTTGATTCGCTTGACGCTGCTG” are -0.496 z-score, -0.42 z-score, -0.33 z-score, -1.02 z-score and -0.273 z-score.
On to “CCGATTAACATCATGAACATTTATGATGTTAATCGGGTCTTGATTCGCTTGACGCTGCTG”, for which the binding signal is -0.701 z-score in the assay with GST-Ap-NF-kB RHD; 0.119 z-score in assay [1]; -0.479 z-score in the assay with GST-Co-NF-kB; -0.164 z-score in the assay with GST-Dm-Relish; -0.211 z-score in the assay with GST-Aq-NF-kB.
With “CCGATTAACATCAGGTTCATTGTTGATGTTAATCGGGTCTTGATTCGCTTGACGCTGCTG”, the binding signal with GST-Ap-NF-kB RHD was -0.0206 z-score; in assay [1], -0.537 z-score; in the assay with GST-Co-NF-kB, -0.717 z-score; in the assay with GST-Dm-Relish, -0.422 z-score; with GST-Aq-NF-kB, -0.0348 z-score.
On to “CCGATTAACATCAAGACACTTGGTGATGTTAATCGGGTCTTGATTCGCTTGACGCTGCTG”, for which the binding signal with GST-Ap-NF-kB RHD is -0.419 z-score; in assay [1], -0.468 z-score; with GST-Co-NF-kB it was -0.23 z-score; with GST-Dm-Relish it was 0.692 z-score; with GST-Aq-NF-kB, -0.38 z-score.
In the same order, the values of “CCGATTAACATCACTGCGTCAAATGATGTTAATCGGGTCTTGATTCGCTTGACGCTGCTG” are -0.324 z-score, -0.504 z-score, -0.596 z-score, -0.247 z-score and -0.624 z-score.
The matching figures for “CCGATTAACATCAGACGAATGCCTGATGTTAATCGGGTCTTGATTCGCTTGACGCTGCTG”: -1.28 z-score, -0.349 z-score, -1.66 z-score, -1.18 z-score and -0.601 z-score.
In the case of “CCGATTAACATCAGCATAAGTCTTGATGTTAATCGGGTCTTGATTCGCTTGACGCTGCTG”, the binding signal in the assay with GST-Ap-NF-kB RHD was -0.56 z-score; in assay [1], -0.355 z-score; in the assay with GST-Co-NF-kB it was -0.205 z-score; with GST-Dm-Relish it was -0.546 z-score; with GST-Aq-NF-kB it was -0.434 z-score.
As for “CCGATTAACATCAAAGAGTCCTATGATGTTAATCGGGTCTTGATTCGCTTGACGCTGCTG”, the binding signal with GST-Ap-NF-kB RHD was -0.39 z-score; in assay [1], -0.599 z-score; with GST-Co-NF-kB, -0.219 z-score; with GST-Dm-Relish, -0.626 z-score; in the assay with GST-Aq-NF-kB, 0.039 z-score.
Turning to “CCGATTAACATCAGGAATGGCCATGATGTTAATCGGGTCTTGATTCGCTTGACGCTGCTG”, the binding signal with GST-Ap-NF-kB RHD was -0.582 z-score; in assay [1], -0.392 z-score; in the assay with GST-Co-NF-kB, -0.568 z-score; with GST-Dm-Relish it was -0.464 z-score; in the assay with GST-Aq-NF-kB, -0.0489 z-score.
On to “CCGATTAACATCAAGCTAATCTGTGATGTTAATCGGGTCTTGATTCGCTTGACGCTGCTG”, for which the binding signal with GST-Ap-NF-kB RHD was -0.905 z-score; in assay [1], -0.733 z-score; with GST-Co-NF-kB it was -0.652 z-score; with GST-Dm-Relish it was -0.359 z-score; with GST-Aq-NF-kB, -0.513 z-score.
Take “CCGATTAACATCATGCAAGAACTTGATGTTAATCGGGTCTTGATTCGCTTGACGCTGCTG”: the binding signal with GST-Ap-NF-kB RHD was -0.825 z-score; in assay [1], 0.00555 z-score; with GST-Co-NF-kB, 0.0534 z-score; with GST-Dm-Relish, -0.302 z-score; with GST-Aq-NF-kB it was -0.405 z-score.
In the same order, the values of “CCGATTAACATCAATTCATCAGTTGATGTTAATCGGGTCTTGATTCGCTTGACGCTGCTG” are -0.85 z-score, -0.333 z-score, -0.0609 z-score, -0.758 z-score and -0.477 z-score.
As to “CCGATTAACATCAGATTTACCGCTGATGTTAATCGGGTCTTGATTCGCTTGACGCTGCTG”, the binding signal with GST-Ap-NF-kB RHD was 0.0251 z-score; in assay [1], 0.309 z-score; with GST-Co-NF-kB, 0.383 z-score; in the assay with GST-Dm-Relish, -0.049 z-score; with GST-Aq-NF-kB, -0.077 z-score.
As to “CCGATTAACATCACGTAACTCCATGATGTTAATCGGGTCTTGATTCGCTTGACGCTGCTG”, the binding signal in the assay with GST-Ap-NF-kB RHD was 0.0524 z-score; in assay [1] it was -0.0919 z-score; with GST-Co-NF-kB, -0.0876 z-score; with GST-Dm-Relish, 0.143 z-score; in the assay with GST-Aq-NF-kB, -0.162 z-score.
In the case of “CCGATTAACATCACCGCAGCCTTTGATGTTAATCGGGTCTTGATTCGCTTGACGCTGCTG”, the binding signal was 0.445 z-score with GST-Ap-NF-kB RHD; -0.188 z-score in assay [1]; -0.64 z-score in the assay with GST-Co-NF-kB; 0.642 z-score with GST-Dm-Relish; 0.0886 z-score with GST-Aq-NF-kB.
